Source: PubChem BioAssay AID686978 (National Center for Advancing Translational Sciences (NCATS), 2013)
Values joined by “and” are separate entries in the source; they are usually repeats but may differ in a detail not shown here. Equal values may be shown once. In all, about 420,000 compounds went through this assay and about 64,000 (15%) were called active. The shares of active, inactive and inconclusive entries below differ from those in the screen. Calls follow the shape of the dose curve; as a rule, active = well fitted inhibition curve with a large enough effect; inconclusive = small, poorly fitted or top-dose-only effect; inactive = flat fitted curve, though single readings scatter. Where the call is inconclusive, the potency comes from a doubtful curve fit.

Test: qHTS for Inhibitors of human tyrosyl-DNA phosphodiesterase 1 (TDP1): qHTS in cells in absence of CPT; also: nearly all actives have a fitted effect of over 55% in size
Conditions: DT40 Tdp1-/- hTDP1 cells, no CPT, ATP luminescence, 48 h; activity change, negative = growth inhibition: at 46.2 µM (top of the series)
Summary of the method: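 Readout: luminescence from CellTiter-Glo after 30 min in the dark at RT. Cells: DT40 Tdp1-/- with stable hTDP1, 400/well. Exposure: compounds alone, ≥48 hr, 37 °C.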
% is scaled to controls: 0 for no effect and ±100 for the full control effect; potency is read from the fitted curve at half-maximal effect; tags tell the direction and shape of the fitted curve.

Structure (SMILES)	Potency	activity change, negative = growth inhibition
CCN(CC(=O)Nc1ccccc1OC)CC(=O)Nc1ccccc1C(F)(F)F	inconclusive: 29.1 µM [inhibitor, single point]	
CCN(C(=O)COC(=O)c1c(NC(C)=O)sc(C)c1C)c1c(N)n(Cc2ccccc2)c(=O)[nH]c1=O	inconclusive: 29.1 µM [inhibitor, single point]	
Cc1cccn2c(=O)c3cc(C(=O)NC4CCCC4)sc3nc12	inconclusive: 29.1 µM [inhibitor, single point]	
COCc1nn2cc(-c3ccc(C)cc3)nc2s1	inconclusive: 16.4 µM [inhibitor, partial curve]	
COc1ccc(-c2nc(C#N)c(N3CCc4ccccc4C3)o2)cc1OC	active: 13 µM	
O=C1CC(c2ccco2)Cc2[nH]c(=O)c(C(=O)Nc3ccccc3)cc21 (stereo not drawn)	active: 10 µM	
C=CCN1c2ccccc2C(=O)CS1(=O)=O	inactive and inconclusive: 25.1 µM [inhibitor, single point]	
O=C1c2ccccc2C(=O)N1CCC#C/C=C1\c2ccccc2C(=O)N1c1ccccc1	active: 20.6 µM	
O=C1c2ccsc2SCCN1Cc1c(Cl)cccc1Cl		inactive: -17%
COc1ccc(S(=O)(=O)Nc2cccc3c2O[C@H](CN(C)S(=O)(=O)c2ccccc2)[C@@H](C)CN([C@H](C)CO)C3=O)cc1		inactive: -10.5%
O=C(NCC1CCCO1)c1ccccc1OCc1ccc(Cl)cc1 (stereo not drawn)	inconclusive: 29.1 µM [inhibitor, single point]	
O=c1oc2ccccc2n1Cn1c(=O)oc2ccccc21	inconclusive: 13 µM [inhibitor, single point]	
CCOc1ccc(OCC)c(NC(=O)CN2CCN(CC(=O)NC(C)C)CC2)c1	inconclusive: 29.1 µM [inhibitor, single point]	
CCO[C@H]1OC(C(=O)NC2CC2)=C[C@@H](c2ccc(C(F)(F)F)cc2)[C@@H]1CCCO	inconclusive: 29.1 µM [inhibitor, single point]	
COc1cccc(NC(=O)CCCCCn2nnc3ccccc3c2=O)c1		inactive: -13.5%
CCOc1ccc(OCCC(=O)OCC(=O)NC2CCCC2)cc1		inactive: -13%
CC(=O)c1ccc(N2CCN(C(=O)C3CCN(S(=O)(=O)c4c(C)noc4/C=C/c4ccc(C)cc4)CC3)CC2)cc1	active: 2.59 µM	
COc1ccc(OCC(=O)NC(=S)Nc2ccc(N3CCOCC3)c(Cl)c2)cc1		inactive: -14.9%
Cc1cc(C(=O)O)ccc1-n1c(C)cc(C=C2C(=O)c3ccccc3C2=O)c1C	inconclusive: 14.6 µM [inhibitor, single point]	
CC1(c2nnnn2Cc2ccccc2)CCC(=O)N1CC1CCCCC1 (stereo not drawn)	inconclusive: 14.6 µM [inhibitor, partial curve, poor fit]	
CCc1ccc(NC(=O)CCc2ccc(CC)o2)cc1		inactive: -13.1%
CC(=O)N1CCc2c(sc3c2c(=O)n(Cc2ccccc2)c(=O)n3Cc2ccc(C)cc2)C1		inactive: 18.5%
COCc1nnc(NC(=O)CSCc2ccccc2)s1		inactive: 4.51%

Structure (SMILES)	Potency	activity change, negative = growth inhibition
CCN1C(=O)[C@H]2[C@H]3CN=C(SCc4ccc(Cl)cc4)N3[C@@](C)(C(=O)OC)[C@H]2C1=O	inconclusive: 29.1 µM [inhibitor, single point]	
Cc1ccccc1-c1nc(CN2CCC(C(=O)NCCCN3CCCC3)CC2)c(C)o1	inconclusive: 23.1 µM [inhibitor, single point]	
COC1(OC)N=C(N)C2(C#N)C(c3cccc(Oc4ccccc4)c3)C12C#N (stereo not drawn)		inconclusive: -30.4% [inhibitor]
Cc1ccc2[nH]c(C)c(/C=C/c3cc[n+](C)cc3)c2c1	active: 2.59 µM	
CC(=O)Nc1ccc(NC(=O)Cc2ccc(S(=O)(=O)N3CCCCC3)s2)cc1	inconclusive: 32.6 µM [inhibitor, partial curve]	
O=C(NC(=S)Nc1cccc([N+](=O)[O-])c1)C1CCCCC1		inactive: 2.99%
S=C(Nc1ccc(Cl)cc1Cl)Nc1ccccc1Oc1ccccc1	inconclusive: 29.1 µM [inhibitor, single point]	
CCN(CC)C(=O)[C@H]1C[C@H](CC(=O)NCCN2CCOCC2)C(=O)N2CCc3c([nH]c4cc(-c5ccco5)ccc34)[C@]12C	inconclusive: 23.1 µM [inhibitor, single point]	
O=C(NCCN1CCN(c2ccccc2Cl)CC1)Nc1ccccc1	inconclusive: 29.1 µM [inhibitor, single point]	
CCOC(=O)c1ccc(S(=O)(=O)N2CCN(C3CCCC3)CC2)cc1	inconclusive: 29.1 µM [inhibitor, single point]	
C=CCn1c(SCC(=O)Nc2cc(C)c(Cl)cc2OC)nnc1-c1ccco1	inconclusive: 29.1 µM [inhibitor, single point]	
Cc1ccc2nc(-c3cccs3)c(Nc3ccccc3)n2c1	inconclusive: 7.08 µM [inhibitor, partial curve, poor fit]	
O=C(NCCc1cccnc1)c1cc(COc2ccc(F)cc2F)on1	active: 23.1 µM	
CC1CC(C)CN(CCOCCSc2ccccc2)C1 (stereo not drawn)	active: 16.4 µM	
CC(=O)n1cc([C@@H]2C=C(C(=O)Nc3ccccc3)O[C@H](OCCCCO)C2)c2ccccc21	inconclusive: 29.1 µM [inhibitor, single point]	
Cc1ccc(N(CC(=O)Nc2ccccc2-c2ccccc2)S(=O)(=O)c2ccccc2)c(C)c1	inconclusive: 14.6 µM [inhibitor, partial curve, poor fit]	
Clc1ccc(OCc2nn3c(C4CCCCC4)nnc3s2)cc1	active: 20.6 µM	
O=C(CCc1ccc(F)c(F)c1)NC1CCCN(Cc2ccc(Cl)cc2)C1 (stereo not drawn)	inconclusive: 29.1 µM [inhibitor, single point]	
COc1ccc(CCC(=O)NCC(c2ccco2)N2CCc3ccccc32)cc1 (stereo not drawn)	active: 23.1 µM	
Cc1ccc(CN2CC(C(=O)NC3CCCC(C)C3C)CC2=O)cc1 (stereo not drawn)	inconclusive: 29.1 µM [inhibitor, single point]	
Cc1cccc(NC(=O)C2CCCN2C(=O)Oc2ccccc2)c1C (stereo not drawn)	inconclusive: 0.651 µM [inhibitor, full curve, poor fit]	
CC(C)c1ccc(OCC(O)CN2CCN(c3ccccc3)CC2)cc1 (stereo not drawn)	inconclusive: 18.4 µM [inhibitor, single point] and inconclusive: 20.6 µM [inhibitor, single point]	
COc1ccccc1-c1csc(C(NC(C)=O)c2cccc(F)c2)n1 (stereo not drawn)	inconclusive: 23.1 µM [inhibitor, single point]	

Structure (SMILES)	Potency	activity change, negative = growth inhibition
CC(C)(C)c1ccc(CN(Cc2ccco2)Cc2nnnn2C2CCCC2)cc1	active: 14.6 µM	
CC(NC(=O)C1CCCN(S(=O)(=O)c2cnc[nH]2)C1)c1ccccc1 (stereo not drawn)		inactive: -6.43%
CCOC(=O)C(C)n1cnc2c(cnn2-c2ccc(Cl)cc2)c1=O (stereo not drawn)	active: 16.4 µM	
CC(=NNC(=O)c1cc(C)nc2ccccc12)c1ccc(N2CCOCC2)cc1	inconclusive: 5.8 µM [inhibitor, partial curve, poor fit]	
Cc1ccc2oc(=O)c3cc(C(=O)NCCCN4CCc5ccccc5C4)sc3c2c1	inconclusive: 23.1 µM [inhibitor, single point]	
Cc1noc(C)c1COc1ccc(CC(=O)NC2CCCCCC2)cc1	inconclusive: 18.4 µM [inhibitor, single point]	
O=C(c1ccco1)N1CCC2(CC1)CCN(c1ccccc1)CC2	inconclusive: 29.1 µM [inhibitor, single point]	
Cc1ccc(-c2ccc3c(c2)O[C@H](CN(C)C(=O)Nc2ccc(C(F)(F)F)cc2)[C@H](C)CN([C@H](C)CO)S3(=O)=O)cc1	inconclusive: 29.1 µM [inhibitor, single point]	
COc1ccccc1NC(=O)CSC1=Nc2ccccc2C2=NC(CCC(=O)NCCc3ccccc3)C(=O)N12 (stereo not drawn)	active: 23.1 µM	
CC1(C)CC(=O)c2cc(OCC(=O)NCCCN3CCN(c4ccc(F)cc4)CC3)ccc2O1	inconclusive: 15.8 µM [inhibitor, single point]	
O=C(OCCN1C(=O)c2ccccc2C1=O)c1cc(S(=O)(=O)N2CCOCC2)ccc1F		inactive: -5.81%
CCSc1nc2ccc(OC)cc2cc1C#N		inactive: -10.6%
CCOc1ccccc1NC(=O)Cn1ncc2c(=O)oc3ccc(C)cc3c21		inactive: -14%
CCN(CC)CCOCCOC(=O)C(CC)(CC)c1ccccc1	inactive and inconclusive: 29.9 µM [inhibitor, single point]	
Cc1nc(NCC2CCCO2)c2nnn(Cc3c(F)cccc3Cl)c2n1 (stereo not drawn)	inconclusive: 16.4 µM [inhibitor, single point]	
O=c1[nH]cnc(O)c1N=Nc1ccccc1	inconclusive: 18.4 µM [inhibitor, single point]	
CCc1ccc(NC(=O)C(C)OC(=O)c2cccc(S(=O)(=O)N3CCc4ccccc4C3)c2)cc1 (stereo not drawn)	inconclusive: 29.1 µM [inhibitor, single point]	
CC(=O)NCCn1c(SCC#N)nc2ccccc2c1=O		inactive: -18%
COc1ccc(C(=O)NC(=S)NNC(=O)Cc2cccs2)cc1	inconclusive: 25.9 µM [inhibitor, single point]	
COc1ccc(N2CCN(C(c3ccccc3)c3sc4nc(-c5ccco5)nn4c3O)CC2)cc1 (stereo not drawn)	inconclusive: 18.4 µM [inhibitor, single point]	
COCC1CCN(C(=O)C2CCC(=O)N(Cc3cccc(F)c3)C2)CC1 (stereo not drawn)		inactive: -0.41%
O=C(Nc1ncc2c(n1)CC(c1cccc(Cl)c1)CC2=O)c1ccco1 (stereo not drawn)	inconclusive: 29.1 µM [inhibitor, single point]	
